Test results reported in PubChem BioAssay AID504832 (National Center for Advancing Translational Sciences (NCATS), 2011).
Screen size: about 310,000 compounds; about 18,000 (5.8%) were called active. Inconclusive means that the source gave no clear call. Such entries were picked first, then a sample of the others. The call rests on the fitted dose curve; in most records, active means well fitted inhibition curve with a large enough effect; inconclusive means small, poorly fitted or top-dose-only effect, or another doubt; inactive means no such curve, though single readings can be large or run the other way. Potencies of inconclusive entries are left out as doubtful fits.

experiment: Primary qHTS for delayed death inhibitors of the malarial parasite plastid, 48 hour incubation; conditions: P. falciparum luciferase growth in erythrocytes; series mostly up to 28.7 µM
Summary of the method: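 Firefly luciferase activity from engineered P. falciparum reports growth; inhibitors lower the luminescent signal. Cultures contained 2% hematocrit erythrocytes at 0.1% final parasitemia.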
Potency means the concentration at half of the fitted maximal effect; tags describe the fitted curve by direction and shape.

| Structure (SMILES) | Potency |
| --- | --- |
| CCOC(=O)c1c(S(=O)(=O)N2CCCC2)c(C)n(C)c1C | inactive |
| Cc1onc(-c2ccccc2Cl)c1C(=O)NCc1cccs1 | inconclusive [inhibitor, partial curve, poor fit] |
| Cc1cccc(NC(=O)COC(=O)c2cc(C)n(C3CC3)c2C)c1 | active: 9.28 µM |
| Cc1ccc(S(=O)(=O)N2CCCC(C(=O)N3CCN(c4ccccc4)CC3)C2)cc1 (centres undefined) | inconclusive [inhibitor, partial curve, poor fit] |
| COc1ccc(/C=N/Nc2nc(-c3ccc(C)cc3)c(C#N)c(=O)[nH]2)cc1 | inactive |
| COc1ccccc1NC(=O)C(C)Sc1nc2ccccc2c(=O)n1CC1CCCO1 (centres undefined) | active: 10.4 µM |
| CC1CCCCN1S(=O)(=O)c1ccc(N(C(=O)c2cnccn2)C(C(=O)NC2CCCC2)c2cccs2)cc1 (centres undefined) | active: 13.1 µM |
| CCOC(=O)C1(CCOc2ccccc2)CCN(CCCn2cccn2)CC1 | inconclusive [inhibitor, partial curve, poor fit] |
| Cc1ccc(S(=O)(=O)N(CC(=O)NCC2CCCO2)Cc2cccc(C)c2)cc1 (centres undefined) | inactive |
| Oc1ccccc1Nc1ncnc2c1oc1ccccc12 | inconclusive [inhibitor, partial curve, poor fit] |
| O=C(c1ccc(S(=O)(=O)N2CCCC2)cc1)N1CCN(c2ccccc2F)CC1 | inconclusive [inhibitor, single point] |
| CN(Cc1ccc(C(C)(C)C)cc1)C(=O)C1CCN(C(=O)Nc2ccccc2)CC1 | active: 10.4 µM |
| O=C(O)CSc1c(-c2cccs2)[nH]c2ccccc12 | inactive |
| CN(Cc1nc(Cc2ccccc2F)no1)Cc1cccc2ncccc12 | inconclusive [inhibitor, full curve] |
| CC(Nc1nc(C(F)(F)F)nc2ccccc12)c1cccs1 (centres undefined) | inconclusive [inhibitor, single point] |
| COc1cc(C(=O)NC(=S)Nc2ccccc2N2CCOCC2)cc(OC)c1OC | inconclusive [inhibitor, single point] |
| CCOC(=O)c1c(NC(=O)CN2C(=O)NC3(CCC(C)CC3)C2=O)sc(C(=O)N(C)C)c1C (centres undefined) | inconclusive [inhibitor, single point] |
| CC(=O)c1c(C)[nH]c(C(=O)Nc2cccc(S(=O)(=O)N(C)c3ccccc3)c2)c1C | inconclusive [inhibitor, partial curve] |
| Cc1cccc(C)c1NC(=O)CN(C)C(=O)C1CCN(c2ncnc3sc(C)c(C)c23)CC1 | inconclusive [inhibitor, partial curve] |
| CC[C@@]1(O)C(=O)OCc2c1cc1n(c2=O)Cc2cc3c(N)cccc3nc2-1 | active: 1.85 µM |
| CN1CCN(c2ccc(C(=O)c3cn(-c4ccc(F)c(Cl)c4)nn3)cc2)CC1 | inconclusive [inhibitor, single point] |
| c1cc2c(cc1-c1[nH]ncc1CN1CC3C[C@@H]4CC1C[C@H](C3)C4)OCO2 | inconclusive [inhibitor, partial curve, poor fit] |

| Structure (SMILES) | Potency |
| --- | --- |
| CCOc1ccc(N(CC(=O)NCCc2ccccc2)C(=O)CCC(=O)Nc2nccs2)cc1 | inconclusive [inhibitor, single point] |
| Cc1ccc(C(=O)N2CCN(c3ccc(NC(=O)c4cccnc4Cl)cc3)CC2)cc1 | inconclusive [inhibitor, partial curve, poor fit] |
| COc1ccc(C)cc1NCc1cccc(OC)c1OC | inconclusive [inhibitor, single point] |
| CC(C)(C)c1ccc(C2C3=C(CCCC3=O)NC3=C2C(=O)c2ccccc23)cc1 (centres undefined) | inconclusive [inhibitor, partial curve, poor fit] |
| COc1cc(C(=O)/C=C/Nc2ccc(NC(C)=O)cc2)cc(OC)c1OC | inactive |
| CCN1CCN(c2cc(C)c3cc(NC(=O)Cc4ccccc4OC)ccc3n2)CC1 | active: 11.7 µM |
| COc1cc(CCC(=O)Nc2nnc(-c3cccnc3)s2)cc(OC)c1OC | inactive |
| O=C(NC1CCS(=O)(=O)C1)c1c(NC(=O)C2COc3ccccc3O2)sc2c1CCCC2 (centres undefined) | inconclusive [inhibitor, single point] |
| COc1ccccc1C1CCN(Cc2c(C)[nH]c3ccccc23)CC1 | inconclusive [inhibitor, partial curve] |
| CCOC(=O)c1sc(=NC(=O)c2ccc(S(=O)(=O)N3CC(C)OC(C)C3)cc2)n(C)c1C (centres undefined) | inconclusive [inhibitor, full curve, poor fit] |
| O=C(c1cc(=O)c2ccccc2o1)N1CCCc2ccccc21 | inactive |
| CN(CC(=O)NC1CCCCC1)S(=O)(=O)c1ccc(Br)s1 | inconclusive [inhibitor, single point] |
| CC(C)Oc1ccc(C(=O)Nc2ccccc2N2CCOCC2)cc1 | inconclusive [inhibitor, partial curve, poor fit] |
| C(=N/Nc1nc(-c2ccccc2)cc(-c2ccccc2)n1)/c1cccnc1 | inconclusive [inhibitor, single point] |
| COc1ccc(-c2noc(N3CCC(C(=O)NCCCN4CCCCC4)CC3)n2)cc1 | inconclusive [inhibitor, partial curve, poor fit] |
| CC(C)c1ccc(CN2CCN(S(=O)(=O)c3ccc(Cl)s3)CC2)cc1 | inconclusive [inhibitor, single point] |
| Cc1ccccc1NC(=O)COC(=O)c1cc(=O)c2ccccc2o1 | inactive |
| CC(=O)c1ccccc1NC(=O)COc1ccc(N(C)S(=O)(=O)c2ccc(C)c(C)c2)cc1 | active: 10.4 µM |
| Cc1ccccc1C(=O)N1CCC(C(=O)Nc2ccc(S(=O)(=O)N3CCOCC3)cc2)CC1 | inconclusive [inhibitor, single point] |
| CCC(C)NC(=O)c1oc2ccc(S(=O)(=O)N3CCC4(CC3)OCCO4)cc2c1C (centres undefined) | inconclusive [inhibitor, partial curve] |
| CCc1ccc(C(=O)N2CCN(c3ccc(F)cc3)CC2)s1 | inconclusive [inhibitor, partial curve] |
| COc1cccc(-c2cc(C(=O)NCC3CCCO3)c3cc(C)cc(C)c3n2)c1 (centres undefined) | inconclusive [inhibitor, single point] |

| Structure (SMILES) | Potency |
| --- | --- |
| C=CCn1c(SCc2nc3ccccc3c(=O)[nH]2)nc2ccccc2c1=O | inconclusive [inhibitor, single point] |
| CN(C)Cc1c(O)ccc2c(=O)c(-c3ccccc3Cl)c(C(F)(F)F)oc12 | inconclusive [inhibitor, partial curve, poor fit] |
| COc1ccc(C2/C=C\CN(C(=O)Nc3ccccc3)CC(=O)N2Cc2ccc(F)cc2)cc1 (centres undefined) | inconclusive [inhibitor, partial curve, poor fit] |
| Cc1ccc(SCc2cn3c(C)cc(C)nc3n2)cc1 | inactive |
| CCCCN(CCCC)CCNC(=O)CSCc1ccc(C)cc1 | inconclusive [inhibitor, single point] |
| O=C(N1CCC(n2nc(-c3ccccc3)oc2=O)CC1)C1(c2ccc(Cl)cc2)CC1 | inconclusive [inhibitor, single point] |
| Cc1nnc(SCc2nnc(-c3ccccc3Br)o2)n1-c1ccccc1 | active: 10.4 µM |
| CCOC(=O)[C@H]1[C@H]2COc3ccc(Br)cc3[C@@H]2N2C(=O)c3ccc(F)cc3NC(=O)[C@@]12C | inconclusive [inhibitor, single point] |
| Cc1ccc(NC(=O)c2ccccc2N2C(=O)C3C4C=CC(C5CC45)C3C2=O)cc1C (centres undefined) | inconclusive [inhibitor, single point] |
| O=C(O)c1sccc1OCc1ccccc1 | inactive |
| CCn1c(=O)n(CC)c2cc(N3CCCC3)c(NC(=O)c3cccc(OC)c3)cc21 | inconclusive [inhibitor, partial curve] |
| CCOC(=O)c1c(NC(=O)CCS(=O)(=O)c2ccccc2)sc2c1CCN(C(C)C)C2 | inconclusive [inhibitor, single point] |
| CCN1C(=O)/C(=C2/Sc3ccccc3N2CC)S/C1=N\c1ncn[nH]1 | inconclusive [inhibitor, single point] |
| CCOC(=O)C1(Cc2ccc(Cl)cc2)CCN(C(=O)c2sc(C)nc2C)CC1 | inconclusive [inhibitor, partial curve] |
| CCS(=O)(=O)c1nc(S(=O)(=O)c2ccc(C)cc2)c(N2CCC(C)CC2)s1 | inconclusive [inhibitor, full curve] |
| O=C(CN1CCN(S(=O)(=O)c2ccc(F)cc2)CC1)Nc1ccnn1C1CCCC1 | inconclusive [inhibitor, partial curve, poor fit] |
| S=C(NCc1ccncc1)Nc1ccc(Br)cc1Cl | inactive |
| COc1ccc(CCNCC(=O)Nc2ccc(C)c(S(=O)(=O)N(C)C)c2)cc1OC | inconclusive [inhibitor, full curve, poor fit] |
| COCc1cc(CN2CCN(CCc3ccccc3)C(CCO)C2)ccc1OC (centres undefined) | inactive |
| Cc1ccc2c(c1)C1CN(C)CCC1N2C(=O)c1ccccc1NS(=O)(=O)c1ccc(F)cc1C (centres undefined) | inconclusive [inhibitor, partial curve, poor fit] |
